# T1: mouse 4-1BB (mouse, UniProt P20334 24-187)
# T1 construct: also called murine 4-1BB; mu4-1BB
# T1 sequence (looked up): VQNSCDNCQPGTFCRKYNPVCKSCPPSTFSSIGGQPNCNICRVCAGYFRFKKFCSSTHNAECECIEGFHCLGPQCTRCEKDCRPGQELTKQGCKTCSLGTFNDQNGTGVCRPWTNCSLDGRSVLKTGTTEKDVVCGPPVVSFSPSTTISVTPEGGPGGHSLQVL
# Key:
# [1] = molecular target: CD40 (binding assays of Example 4; species and form not stated) (UniProt P25942 in part, limits assumed); assay: antigen binding, method not stated
# [2] = molecular target: T2, human 4-1BB (human, UniProt Q07011 24-186); assay: SPR
# T2 construct: As used in SPR; also called hu4-1BB
# [3] = molecular target: T3, human mesothelin (human, UniProt Q13421 296-580, limits assumed); assay: SPR
# T3 construct: also called Human MSLN
# [4] = molecular target: T1, mouse 4-1BB; assay: SPR
# T3 sequence (Q13421 other isoform, or with tags, fused parts or gaps limits assumed): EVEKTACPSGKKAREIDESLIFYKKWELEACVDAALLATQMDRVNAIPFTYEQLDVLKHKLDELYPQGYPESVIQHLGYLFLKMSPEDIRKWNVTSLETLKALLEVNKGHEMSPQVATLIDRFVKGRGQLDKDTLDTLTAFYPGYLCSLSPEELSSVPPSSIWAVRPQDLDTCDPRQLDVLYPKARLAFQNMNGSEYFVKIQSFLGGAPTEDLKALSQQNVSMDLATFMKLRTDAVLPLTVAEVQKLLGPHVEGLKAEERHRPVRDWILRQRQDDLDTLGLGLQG
# UniProt P25942, sequence (P25942 21-193 limits assumed): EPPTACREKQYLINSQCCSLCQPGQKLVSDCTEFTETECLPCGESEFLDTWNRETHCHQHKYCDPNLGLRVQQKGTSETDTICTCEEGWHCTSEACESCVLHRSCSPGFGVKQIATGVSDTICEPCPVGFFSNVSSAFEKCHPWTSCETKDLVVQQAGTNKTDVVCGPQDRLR
Binder,EC50 [1],Kd [2],Kd [3],Kd [4]
"B37 (bispecific antibody, IgG1, scFv-Fc-scFv: huAb8-1 (VH-VL) N-terminal, HuAM15 (VL-VH) C-terminal, huIgG1 V273E) EVQLVQSGAEVKKPGSSVKVSCKASGYTFTDYYINWVRQAPGQGLEWIGWIFPGSGSVYCNEQFKGRATLTVDRSTSTAYMELSSLRSEDTAVYFCASSLGKFAYWGQGTLVTVSSDLSGGGGSGGGGSGGGGSGGGGSTGDIQMTQSPSSLSASVGDRVTITCKASQSVVTAVAWYQQKPGKSPKLLIYSASNRYTGVPSRFSGSGSGTDFTLTISSLQPEDFATYFCQQYSSYPYTFGGGTKVEIKR[human IgG1 Fc with C220S V273E (EU numbers) not written out]VDGASSPVNVSSPSVQDISYELTQPPSVSVSPGQTASITCSGDKLGDKYASWYQQKPGQSPVLVIYQDNRRPSGIPERFSGSNSGNTATLTISGTQAMDEADYYCQAWDSDTYVFGTGTKVTVLGQDLSGGGGSGGGGSGGGGSGGGGSTGEVQLVQSGAEVKKPGASVKVSCKASGDTFKRYYVHWVRQAPGQGLEWMGIINPSGVSTTYAQKFQGRVTMTRDTSTSTVYMELSSLRSEDTAVYYCAEVRGSGFNYFGMDVWGQGTLVTVSS",0.5 µg/mL,,,
hu106MSLN-1 (bispecific antibody) EVQLVQSGAEVKKPGSSVKVSCKASGYTFTSYYIYWVRQAPGQGLEWIGNIWPGNGGTFYGEKFMGRATFTADTSTSTAYMELSSLRSEDTAVYYCARRPDYSGDDYFDYWGQGTLVTVSSGGGGSGGGGSGGGGSGGGGSGGGGSGGGGSNVMLTQPHSVSESPGKTVTISCKLNSGNIGSYYVHWYQQRPGSSPTTMIYRDDKRPDGVPDRFSGSIDSSSNSASLTISGLKTEDEADYYCHSYDSTITPVFGGGTKLTVLGQ[human IgG1 Fc with C220S V273E (EU numbers) not written out]GGGGSGGGSGGGSGGGGSSYELTQPPSVSVSPGQTASITCSGDKLGDKYASWYQQKPGQSPVLVIYQDNRRPSGIPERFSGSNSGNTATLTISGTQAMDEADYYCQAWDSDTYVFGTGTKVTVLGQGGGGSGGGGSGGGGSGGGGSGGGGSGGGGSEVQLVQSGAEVKKPGASVKVSCKASGDTFKRYYVHWVRQAPGQGLEWMGIINPSGVSTTYAQKFQGRVTMTRDTSTSTVYMELSSLRSEDTAVYYCAEVRGSGFNYFGMDVWGQGTLVTVSS,,800 nM,4.7 nM,71 nM
"hu106MSLN-2 (bispecific antibody, see m102) NVMLTQPHSVSESPGKTVTISCKLNSGNIGSYYVHWYQQRPGSSPTTMIYRDDKRPDGVPDRFSGSIDSSSNSASLTISGLKTEDEADYYCHSYDSTITPVFGGGTKLTVLGQGGGGSGGGGSGGGGSGGGGSGGGGSGGGGSEVQLVQSGAEVKKPGSSVKVSCKASGYTFTSYYIYWVRQAPGQGLEWIGNIWPGNGGTFYGEKFMGRATFTADTSTSTAYMELSSLRSEDTAVYYCARRPDYSGDDYFDYWGQGTLVTVSS[human IgG1 Fc with C220S V273E (EU numbers) not written out]GGGGSGGGSGGGSGGGGSSYELTQPPSVSVSPGQTASITCSGDKLGDKYASWYQQKPGQSPVLVIYQDNRRPSGIPERFSGSNSGNTATLTISGTQAMDEADYYCQAWDSDTYVFGTGTKVTVLGQGGGGSGGGGSGGGGSGGGGSGGGGSGGGGSEVQLVQSGAEVKKPGASVKVSCKASGDTFKRYYVHWVRQAPGQGLEWMGIINPSGVSTTYAQKFQGRVTMTRDTSTSTVYMELSSLRSEDTAVYYCAEVRGSGFNYFGMDVWGQGTLVTVSS",,670 nM,4.5 nM,74 nM
"hu106MSLN-3 (bispecific antibody, see m102) SYELTQPPSVSVSPGQTASITCSGDKLGDKYASWYQQKPGQSPVLVIYQDNRRPSGIPERFSGSNSGNTATLTISGTQAMDEADYYCQAWDSDTYVFGTGTKVTVLGQGGGGSGGGGSGGGGSGGGGSGGGGSGGGGSEVQLVQSGAEVKKPGASVKVSCKASGDTFKRYYVHWVRQAPGQGLEWMGIINPSGVSTTYAQKFQGRVTMTRDTSTSTVYMELSSLRSEDTAVYYCAEVRGSGFNYFGMDVWGQGTLVTVSS[human IgG1 Fc with C220S V273E (EU numbers) not written out]GGGGSGGGSGGGSGGGGSEVQLVQSGAEVKKPGSSVKVSCKASGYTFTSYYIYWVRQAPGQGLEWIGNIWPGNGGTFYGEKFMGRATFTADTSTSTAYMELSSLRSEDTAVYYCARRPDYSGDDYFDYWGQGTLVTVSSGGGGSGGGGSGGGGSGGGGSGGGGSGGGGSNVMLTQPHSVSESPGKTVTISCKLNSGNIGSYYVHWYQQRPGSSPTTMIYRDDKRPDGVPDRFSGSIDSSSNSASLTISGLKTEDEADYYCHSYDSTITPVFGGGTKLTVLGQ",,2300 nM,1.4 nM,110 nM
"hu106MSLN-4 (bispecific antibody, see m102) SYELTQPPSVSVSPGQTASITCSGDKLGDKYASWYQQKPGQSPVLVIYQDNRRPSGIPERFSGSNSGNTATLTISGTQAMDEADYYCQAWDSDTYVFGTGTKVTVLGQGGGGSGGGGSGGGGSGGGGSGGGGSGGGGSEVQLVQSGAEVKKPGASVKVSCKASGDTFKRYYVHWVRQAPGQGLEWMGIINPSGVSTTYAQKFQGRVTMTRDTSTSTVYMELSSLRSEDTAVYYCAEVRGSGFNYFGMDVWGQGTLVTVSS[human IgG1 Fc with C220S V273E (EU numbers) not written out]GGGGSGGGSGGGSGGGGSNVMLTQPHSVSESPGKTVTISCKLNSGNIGSYYVHWYQQRPGSSPTTMIYRDDKRPDGVPDRFSGSIDSSSNSASLTISGLKTEDEADYYCHSYDSTITPVFGGGTKLTVLGQGGGGSGGGGSGGGGSGGGGSGGGGSGGGGSEVQLVQSGAEVKKPGSSVKVSCKASGYTFTSYYIYWVRQAPGQGLEWIGNIWPGNGGTFYGEKFMGRATFTADTSTSTAYMELSSLRSEDTAVYYCARRPDYSGDDYFDYWGQGTLVTVSS",,1400 nM,1.4 nM,140 nM
"hu107MSLN-1 (bispecific antibody, see m102) EVQLVQSGAEVKKPGSSVKVSCKASDYTFNDYWVSWVRQAPGQGLEWIGEIYPNSGATNFNGKFRGRATLTVDNSASTAYMELSSLRSEDTAVYYCTREYTRDWFAYWGQGTLVTVSSGGGGSGGGGSGGGGSGGGGSGGGGSGGGGSDVVLTQSPLSLPVTLGQPASISCRSSQSLLDSDGNTYLYWFQQRPGQSPRRLIYLVSNLGSGVPDRFSGSGSGTDFTLKISRVEAEDVGVYYCMQPTHAPYTFGQGTKLEIKR[human IgG1 Fc with C220S V273E (EU numbers) not written out]GGGGSGGGSGGGSGGGGSSYELTQPPSVSVSPGQTASITCSGDKLGDKYASWYQQKPGQSPVLVIYQDNRRPSGIPERFSGSNSGNTATLTISGTQAMDEADYYCQAWDSDTYVFGTGTKVTVLGQGGGGSGGGGSGGGGSGGGGSGGGGSGGGGSEVQLVQSGAEVKKPGASVKVSCKASGDTFKRYYVHWVRQAPGQGLEWMGIINPSGVSTTYAQKFQGRVTMTRDTSTSTVYMELSSLRSEDTAVYYCAEVRGSGFNYFGMDVWGQGTLVTVSS",,1.4 nM,3.6 nM,29 nM
"hu107MSLN-2 (bispecific antibody, see m102) DVVLTQSPLSLPVTLGQPASISCRSSQSLLDSDGNTYLYWFQQRPGQSPRRLIYLVSNLGSGVPDRFSGSGSGTDFTLKISRVEAEDVGVYYCMQPTHAPYTFGQGTKLEIKRGGGGSGGGGSGGGGSGGGGSGGGGSGGGGSEVQLVQSGAEVKKPGSSVKVSCKASDYTFNDYWVSWVRQAPGQGLEWIGEIYPNSGATNFNGKFRGRATLTVDNSASTAYMELSSLRSEDTAVYYCTREYTRDWFAYWGQGTLVTVSS[human IgG1 Fc with C220S V273E (EU numbers) not written out]GGGGSGGGSGGGSGGGGSSYELTQPPSVSVSPGQTASITCSGDKLGDKYASWYQQKPGQSPVLVIYQDNRRPSGIPERFSGSNSGNTATLTISGTQAMDEADYYCQAWDSDTYVFGTGTKVTVLGQGGGGSGGGGSGGGGSGGGGSGGGGSGGGGSEVQLVQSGAEVKKPGASVKVSCKASGDTFKRYYVHWVRQAPGQGLEWMGIINPSGVSTTYAQKFQGRVTMTRDTSTSTVYMELSSLRSEDTAVYYCAEVRGSGFNYFGMDVWGQGTLVTVSS",,3.6 nM,3.1 nM,44 nM
"hu107MSLN-3 (bispecific antibody, see m102) SYELTQPPSVSVSPGQTASITCSGDKLGDKYASWYQQKPGQSPVLVIYQDNRRPSGIPERFSGSNSGNTATLTISGTQAMDEADYYCQAWDSDTYVFGTGTKVTVLGQGGGGSGGGGSGGGGSGGGGSGGGGSGGGGSEVQLVQSGAEVKKPGASVKVSCKASGDTFKRYYVHWVRQAPGQGLEWMGIINPSGVSTTYAQKFQGRVTMTRDTSTSTVYMELSSLRSEDTAVYYCAEVRGSGFNYFGMDVWGQGTLVTVSS[human IgG1 Fc with C220S V273E (EU numbers) not written out]GGGGSGGGSGGGSGGGGSEVQLVQSGAEVKKPGSSVKVSCKASDYTFNDYWVSWVRQAPGQGLEWIGEIYPNSGATNFNGKFRGRATLTVDNSASTAYMELSSLRSEDTAVYYCTREYTRDWFAYWGQGTLVTVSSGGGGSGGGGSGGGGSGGGGSGGGGSGGGGSDVVLTQSPLSLPVTLGQPASISCRSSQSLLDSDGNTYLYWFQQRPGQSPRRLIYLVSNLGSGVPDRFSGSGSGTDFTLKISRVEAEDVGVYYCMQPTHAPYTFGQGTKLEIKR",,7.1 nM,1.5 nM,49 nM
"hu107MSLN-4 (bispecific antibody, see m102) SYELTQPPSVSVSPGQTASITCSGDKLGDKYASWYQQKPGQSPVLVIYQDNRRPSGIPERFSGSNSGNTATLTISGTQAMDEADYYCQAWDSDTYVFGTGTKVTVLGQGGGGSGGGGSGGGGSGGGGSGGGGSGGGGSEVQLVQSGAEVKKPGASVKVSCKASGDTFKRYYVHWVRQAPGQGLEWMGIINPSGVSTTYAQKFQGRVTMTRDTSTSTVYMELSSLRSEDTAVYYCAEVRGSGFNYFGMDVWGQGTLVTVSS[human IgG1 Fc with C220S V273E (EU numbers) not written out]GGGGSGGGSGGGSGGGGSDVVLTQSPLSLPVTLGQPASISCRSSQSLLDSDGNTYLYWFQQRPGQSPRRLIYLVSNLGSGVPDRFSGSGSGTDFTLKISRVEAEDVGVYYCMQPTHAPYTFGQGTKLEIKRGGGGSGGGGSGGGGSGGGGSGGGGSGGGGSEVQLVQSGAEVKKPGSSVKVSCKASDYTFNDYWVSWVRQAPGQGLEWIGEIYPNSGATNFNGKFRGRATLTVDNSASTAYMELSSLRSEDTAVYYCTREYTRDWFAYWGQGTLVTVSS",,6.1 nM,1.4 nM,52 nM

# From patent US20170342169A1 (published 2017)
